55 molecules from PubChem BioAssay AID463173 (ICCB-Longwood Screening Facility, Harvard Medical School, 2010) can be followed below.

Structures are written as SMILES. In all, about 52,000 compounds went through this assay and about 4,300 (8.3%) were called active. Cut-off read from the data, not from the text of the source: active = survival mostly below about 52% (no sharp cut-off); inactive = mostly above about 56%. Some of the results follow.

In the experiment the test system is DeltatarO mutant. As to the kind of experiment: S. aureus survival, RN4220 and DeltatarO strains – OD600, teichoic acid synthesis inhibitors, primary screen (AID 463173). The note with it: S. aureus RN4220 wild type/DeltatarO growth, OD600, 18 h, stronger effect = lower value, screened at 18.75 µg/mL (by protocol).
For the molecule `COc1ccc(NC(=O)c2ccc3c(c2)CCN3S(=O)(=O)c2ccccc2)cc1`, the survival is inactive: 92%. The figure for `COc1cc2c(cc1OC)n(CC(=O)c1ccc(C)cc1)c(=O)n1nc(CCn3nc(C)cc3C)nc21` is inactive: 100%; for `CCOc1ccc(CC(=O)NCc2ccc3c(c2)CCN3C(C)=O)cc1OCC` it is inactive: 102%; for `CN(C)CCNC(=O)Cn1nc(N2CCN(c3ccccc3)CC2)ccc1=O` it is inactive: 86%. The figure for `COc1ccc(NC(=O)CCc2nnc3n(CC(C)C)c(=O)c4ccccc4n23)cc1OC` is inactive: 87%. The result for `CC(C)(C)OC(=O)N1CCC(c2c(C(=O)N3CCN(c4ncccn4)CC3)cnn2-c2cccc(F)c2)CC1` reads inactive: 130%.

Take `O=c1c2nncn2ccn1-c1ccc(F)c(F)c1`: the survival is inactive: 90%. With `O=C(c1cc2cc3ccc(Cl)cc3nc2o1)N1CCN(c2cccc(Cl)c2)CC1`, the survival is active: 46%. For the molecule `O=C(CN1C(=O)CSc2ccc(S(=O)(=O)N3CCCC3)cc21)NCc1ccc(F)cc1Cl`, the survival was inactive: 82%. The result for `Cc1cccc(NC(=O)N2CC=C(c3c[nH]c4ccccc34)CC2)c1C` reads inactive: 73%; that for `CCN(CC)C(=O)C1CCCN(c2ncnc3c2c(-c2ccccc2)cn3-c2cccc(C)c2)C1` (stereo not given), inactive: 94%; that for `COCCCNC(=O)C1CCN(c2nc3ccc(Cl)cc3[nH]2)CC1`, inactive: 118%. The figure for `CC1=C(c2ccc(C(C)C)cc2)S(=O)(=O)NC1=NCc1ccc(Cl)cc1` is inactive: 101%; for `CCOC(=O)c1ccccc1NC(=O)c1nn(-c2ccc(OC)c(Cl)c2)c(=O)c2c1c1ccccc1n2C` it is inactive: 103%. The figure for `Cc1sc2ncn(CC(=O)N3CCN(c4ccccc4)CC3)c(=O)c2c1S(=O)(=O)N1CCC(C)CC1` is inactive: 78%; for `O=c1c2sccc2n(Cc2cc(=O)n3cc(Cl)ccc3n2)c(=O)n1-c1ccccc1` it is inactive: 56%. Consider `O=C1CCSc2ccc(S(=O)(=O)Nc3cccc(C(F)(F)F)c3)cc2N1`, for which the survival is active: -2%. The result for `O=c1c(N2CCN(c3cccc(Cl)c3)CC2)csc2ccc(Cl)cc12` reads inactive: 144%; that for `CCc1cccc(C)c1NC(=O)Cn1ncc2c3ccccc3n(Cc3ccccc3)c2c1=O`, inactive: 86%. The figure for `COc1ccc(-c2cn3nc(SCC(=O)Nc4cc(C)cc(C)c4)ccc3n2)cc1` is inactive: 71%; for `CCCSc1ncnc2c1c(-c1ccccc1)cn2-c1ccccc1OC` it is active: 2%; for `COc1ccc(OC)c(NC(=O)CS(=O)(=O)Cc2nc(-c3ccc(C)cc3)oc2C)c1` it is inactive: 71%. For `CCOc1ccc2c(c1)c(=O)c(S(=O)(=O)c1ccc(CC)cc1)cn2Cc1cccc(Cl)c1`, the survival was inactive: 70%. As to `Cc1ccc(Cl)cc1Nc1nn2c(=O)c3ccc(C(=O)NC4CCCCC4)cc3nc2s1`, the survival is inactive: 123%.

In the case of `CCn1c(SC)nnc1C1CCCN(C(=O)Cc2cccnc2)C1` (stereo not given), the survival was inactive: 106%. The figure for `CCCCOC(=O)c1ccc(Nc2nc3ccc(C(=O)c4ccccc4)cc3n3cnnc23)cc1` is inactive: 54%; for `COc1ccc(CNC(=O)c2ccc(CS(=O)(=O)c3ccc(Br)cc3)o2)cc1` it is inactive: 85%; for `CN(C)c1ccc(CNC23CN4CN(CN(C4)C2)C3)cc1` it is inactive: 97%. The figure for `CCOc1ccc(OCC)c(NC(=O)c2cc(-c3cccs3)nc3ccccc23)c1` is inactive: 85%. Consider `CCC(C)NC(=O)c1cn(CC)c2ccc(S(=O)(=O)N3CCc4ccccc4C3)cc2c1=O` (stereo not given), for which the survival is active: 35%.

In the case of `O=C(NCc1ccccc1Cl)c1ccc2c(c1)N(Cc1ccccc1)CCS2`, the survival is inactive: 79%. The result for `O=C(CSc1nc2ccccc2n1Cc1cccc(F)c1)N1CCN(c2ccc(F)cc2)CC1` reads inactive: 64%. The result for `O=C(NC1CCCCCC1)c1ccc(CS(=O)c2cccc(Cl)c2)o1` (stereo not given) reads inactive: 117%; that for `Cc1cc(C)c(NC(=O)Cn2c(=O)n(CC(=O)NCCc3ccccc3)c(=O)c3ccccc32)c(C)c1`, inactive: 86%; that for `CCOC(=O)c1[nH]c(C)c(CCC(=O)Nc2cc(Cl)c(OC)cc2OC)c1C`, inactive: 122%. Take `CS(=O)(=O)N(CC(=O)N1CCCCCC1)c1cc(Cl)cc(Cl)c1`: the survival was inactive: 85%. For `Cc1cc(N2CCC(C)CC2)nc2ccc(NC(=O)CCC(=O)N3CCN(c4ccccc4F)CC3)cc12`, the survival is inactive: 52%. The figure for `O=S(=O)(c1ccc2nc(Nc3ccc(F)cc3)ccc2c1)N1CCCC1` is inactive: 75%; for `Cc1ccc(C)c(CNC(=O)CN2C(=O)CSc3ccc(S(=O)(=O)N(C)C)cc32)c1` it is inactive: 87%; for `Cc1ccc(C)c2[nH]c(=O)c(CN(CCN3CCCC3)C(=O)Nc3cccc(Cl)c3)cc12` it is inactive: 64%. The figure for `COc1ccccc1N1CCN(S(=O)(=O)CCNC(=O)C(c2ccccc2)c2ccccc2)CC1` is inactive: 76%; for `COc1ccc(S(=O)(=O)N(CCc2ccccc2)CC(=O)Nc2cc(C)cc(C)c2)cc1OC` it is inactive: 54%. The result for `CCc1ccc(NC(=O)Cn2c(=O)n(CCc3ccccc3)c(=O)c3sc4ccccc4c32)cc1` reads inactive: 79%.

As to `CC(=O)c1cccc(N2C(=O)CN(S(C)(=O)=O)CC2(C)C(=O)NC2CCCC2)c1` (stereo not given), the survival is inactive: 79%. As for `Cc1nc(-c2ccc(C)c(S(=O)(=O)N3CCC(C(=O)NCc4ccc(F)cc4)CC3)c2)no1`, the survival was inactive: 88%. The figure for `CCOCCCn1c(=N)c(C(=O)NCc2ccccc2)cc2c(=O)n3ccccc3nc21` is inactive: 74%. The figure for `COc1cccc(NC(=O)Cn2c(=O)n(CCc3cccc(C)c3)c(=O)c3ccccc32)c1` is inactive: 84%; for `Cc1c2cnn(-c3ccccc3)c(=O)c2c(C)n1C(C)C(=O)NCc1cccc(Br)c1` (stereo not given) it is inactive: 66%.

Take `COc1ccccc1N(CC(N)=O)S(=O)(=O)c1ccccc1`: the survival is inactive: 94%.

Regarding `O=c1[nH]cc(N=Cc2cccnc2)c(=O)[nH]1`, the survival was inactive: 93%.

In the case of `Cc1cccc(NC(=O)c2c(NC(=O)c3ccco3)sc3c2CCC(C)C3)c1` (stereo not given), the survival is inactive: 53%. The result for `Cc1ccc(NC(=O)Cn2nc(-c3ccccc3)nc(Cc3ccccc3)c2=O)cc1` reads inactive: 83%.

`COc1cccc(CNC(=O)c2ccc3c(c2)nc2n3CCC(C)C2)c1` (stereo not given): the survival was inactive: 72%. The result for `CCCN(CCC)C(=O)c1nn(C)c2c1CSc1ccccc1-2` reads inactive: 107%; that for `CC(C)C(=O)Nc1cccc(C(=O)Nc2nnc(C(F)(F)F)s2)c1`, inactive: 58%.
